In article PMC4807272, “Structural Determinants of Oligomerization of the Aquaporin-4 Channel*” (The Journal of Biological Chemistry, 2016):

B1: AQP4 I47A, C-terminal GFP fusion (natural protein, human)
chain: MSDRPTARRWGKCGPLCTRENIMVAFKGVWTQAFWKAVTAEFLAMLAFVLLSLGSTINWGGTEKPLPVDMVLISLCFGLSIATMVQCFGHISGGHINPAVTVAMVCTRKISIAKSVFYIAAQCLGAIIGAGILYLVTPPSVVGGLGVTMVHGNLTAGHGLLVELIITFQLVFTIFASCDSKRTDVTGSIALAIGFSVAIGHLFAINYTGASMNPARSFGPAVIMGNWENHWIYWVGPIIGAVLAGGLYEYVFCPDV[… about 60 residues …]
notes: aquaporin-4 (AQP4), human cDNA in pDEST47; M1 isoform (323 residues); source: HEK293, transiently transfected, in Triton X-100 lysate; not shown: GFP, C-terminal, kept
B2: AQP4 S180A, C-terminal GFP fusion (natural protein, human)
chain: MSDRPTARRWGKCGPLCTRENIMVAFKGVWTQAFWKAVTAEFLAMLIFVLLSLGSTINWGGTEKPLPVDMVLISLCFGLSIATMVQCFGHISGGHINPAVTVAMVCTRKISIAKSVFYIAAQCLGAIIGAGILYLVTPPSVVGGLGVTMVHGNLTAGHGLLVELIITFQLVFTIFASCDAKRTDVTGSIALAIGFSVAIGHLFAINYTGASMNPARSFGPAVIMGNWENHWIYWVGPIIGAVLAGGLYEYVFCPDV[… about 60 residues …]
notes: as for B1
B3: AQP4 K181A, C-terminal GFP fusion (natural protein, human)
chain: MSDRPTARRWGKCGPLCTRENIMVAFKGVWTQAFWKAVTAEFLAMLIFVLLSLGSTINWGGTEKPLPVDMVLISLCFGLSIATMVQCFGHISGGHINPAVTVAMVCTRKISIAKSVFYIAAQCLGAIIGAGILYLVTPPSVVGGLGVTMVHGNLTAGHGLLVELIITFQLVFTIFASCDSARTDVTGSIALAIGFSVAIGHLFAINYTGASMNPARSFGPAVIMGNWENHWIYWVGPIIGAVLAGGLYEYVFCPDV[… about 60 residues …]
notes: as for B1
B4: AQP4 I165A, C-terminal GFP fusion (natural protein, human)
chain: MSDRPTARRWGKCGPLCTRENIMVAFKGVWTQAFWKAVTAEFLAMLIFVLLSLGSTINWGGTEKPLPVDMVLISLCFGLSIATMVQCFGHISGGHINPAVTVAMVCTRKISIAKSVFYIAAQCLGAIIGAGILYLVTPPSVVGGLGVTMVHGNLTAGHGLLVELAITFQLVFTIFASCDSKRTDVTGSIALAIGFSVAIGHLFAINYTGASMNPARSFGPAVIMGNWENHWIYWVGPIIGAVLAGGLYEYVFCPDV[… about 60 residues …]
notes: as for B1
B5: AQP4 I57A, C-terminal GFP fusion (natural protein, human)
chain: MSDRPTARRWGKCGPLCTRENIMVAFKGVWTQAFWKAVTAEFLAMLIFVLLSLGSTANWGGTEKPLPVDMVLISLCFGLSIATMVQCFGHISGGHINPAVTVAMVCTRKISIAKSVFYIAAQCLGAIIGAGILYLVTPPSVVGGLGVTMVHGNLTAGHGLLVELIITFQLVFTIFASCDSKRTDVTGSIALAIGFSVAIGHLFAINYTGASMNPARSFGPAVIMGNWENHWIYWVGPIIGAVLAGGLYEYVFCPDV[… about 60 residues …]
notes: as for B1
B6: AQP4 R182A, C-terminal GFP fusion (natural protein, human)
chain: MSDRPTARRWGKCGPLCTRENIMVAFKGVWTQAFWKAVTAEFLAMLIFVLLSLGSTINWGGTEKPLPVDMVLISLCFGLSIATMVQCFGHISGGHINPAVTVAMVCTRKISIAKSVFYIAAQCLGAIIGAGILYLVTPPSVVGGLGVTMVHGNLTAGHGLLVELIITFQLVFTIFASCDSKATDVTGSIALAIGFSVAIGHLFAINYTGASMNPARSFGPAVIMGNWENHWIYWVGPIIGAVLAGGLYEYVFCPDV[… about 60 residues …]
notes: as for B1
B7: AQP4 D179A, C-terminal GFP fusion (natural protein, human)
chain: MSDRPTARRWGKCGPLCTRENIMVAFKGVWTQAFWKAVTAEFLAMLIFVLLSLGSTINWGGTEKPLPVDMVLISLCFGLSIATMVQCFGHISGGHINPAVTVAMVCTRKISIAKSVFYIAAQCLGAIIGAGILYLVTPPSVVGGLGVTMVHGNLTAGHGLLVELIITFQLVFTIFASCASKRTDVTGSIALAIGFSVAIGHLFAINYTGASMNPARSFGPAVIMGNWENHWIYWVGPIIGAVLAGGLYEYVFCPDV[… about 60 residues …]
notes: as for B1
B8: AQP4 D184A, C-terminal GFP fusion (natural protein, human)
chain: MSDRPTARRWGKCGPLCTRENIMVAFKGVWTQAFWKAVTAEFLAMLIFVLLSLGSTINWGGTEKPLPVDMVLISLCFGLSIATMVQCFGHISGGHINPAVTVAMVCTRKISIAKSVFYIAAQCLGAIIGAGILYLVTPPSVVGGLGVTMVHGNLTAGHGLLVELIITFQLVFTIFASCDSKRTAVTGSIALAIGFSVAIGHLFAINYTGASMNPARSFGPAVIMGNWENHWIYWVGPIIGAVLAGGLYEYVFCPDV[… about 60 residues …]
notes: as for B1
B9: AQP4 L161A, C-terminal GFP fusion (natural protein, human)
chain: MSDRPTARRWGKCGPLCTRENIMVAFKGVWTQAFWKAVTAEFLAMLIFVLLSLGSTINWGGTEKPLPVDMVLISLCFGLSIATMVQCFGHISGGHINPAVTVAMVCTRKISIAKSVFYIAAQCLGAIIGAGILYLVTPPSVVGGLGVTMVHGNLTAGHGLAVELIITFQLVFTIFASCDSKRTDVTGSIALAIGFSVAIGHLFAINYTGASMNPARSFGPAVIMGNWENHWIYWVGPIIGAVLAGGLYEYVFCPDV[… about 60 residues …]
notes: as for B1
B10: AQP4 H90A, C-terminal GFP fusion (natural protein, human)
chain: MSDRPTARRWGKCGPLCTRENIMVAFKGVWTQAFWKAVTAEFLAMLIFVLLSLGSTINWGGTEKPLPVDMVLISLCFGLSIATMVQCFGAISGGHINPAVTVAMVCTRKISIAKSVFYIAAQCLGAIIGAGILYLVTPPSVVGGLGVTMVHGNLTAGHGLLVELIITFQLVFTIFASCDSKRTDVTGSIALAIGFSVAIGHLFAINYTGASMNPARSFGPAVIMGNWENHWIYWVGPIIGAVLAGGLYEYVFCPDV[… about 60 residues …]
notes: as for B1
B11: AQP4 I189A, C-terminal GFP fusion (natural protein, human)
chain: MSDRPTARRWGKCGPLCTRENIMVAFKGVWTQAFWKAVTAEFLAMLIFVLLSLGSTINWGGTEKPLPVDMVLISLCFGLSIATMVQCFGHISGGHINPAVTVAMVCTRKISIAKSVFYIAAQCLGAIIGAGILYLVTPPSVVGGLGVTMVHGNLTAGHGLLVELIITFQLVFTIFASCDSKRTDVTGSAALAIGFSVAIGHLFAINYTGASMNPARSFGPAVIMGNWENHWIYWVGPIIGAVLAGGLYEYVFCPDV[… about 60 residues …]
notes: as for B1
B12: AQP4 S188A, C-terminal GFP fusion (natural protein, human)
chain: MSDRPTARRWGKCGPLCTRENIMVAFKGVWTQAFWKAVTAEFLAMLIFVLLSLGSTINWGGTEKPLPVDMVLISLCFGLSIATMVQCFGHISGGHINPAVTVAMVCTRKISIAKSVFYIAAQCLGAIIGAGILYLVTPPSVVGGLGVTMVHGNLTAGHGLLVELIITFQLVFTIFASCDSKRTDVTGAIALAIGFSVAIGHLFAINYTGASMNPARSFGPAVIMGNWENHWIYWVGPIIGAVLAGGLYEYVFCPDV[… about 60 residues …]
notes: as for B1
B13: AQP4 L50A, C-terminal GFP fusion (natural protein, human)
chain: MSDRPTARRWGKCGPLCTRENIMVAFKGVWTQAFWKAVTAEFLAMLIFVALSLGSTINWGGTEKPLPVDMVLISLCFGLSIATMVQCFGHISGGHINPAVTVAMVCTRKISIAKSVFYIAAQCLGAIIGAGILYLVTPPSVVGGLGVTMVHGNLTAGHGLLVELIITFQLVFTIFASCDSKRTDVTGSIALAIGFSVAIGHLFAINYTGASMNPARSFGPAVIMGNWENHWIYWVGPIIGAVLAGGLYEYVFCPDV[… about 60 residues …]
notes: as for B1
B14: AQP4 Q86A, C-terminal GFP fusion (natural protein, human)
chain: MSDRPTARRWGKCGPLCTRENIMVAFKGVWTQAFWKAVTAEFLAMLIFVLLSLGSTINWGGTEKPLPVDMVLISLCFGLSIATMVACFGHISGGHINPAVTVAMVCTRKISIAKSVFYIAAQCLGAIIGAGILYLVTPPSVVGGLGVTMVHGNLTAGHGLLVELIITFQLVFTIFASCDSKRTDVTGSIALAIGFSVAIGHLFAINYTGASMNPARSFGPAVIMGNWENHWIYWVGPIIGAVLAGGLYEYVFCPDV[… about 60 residues …]
notes: as for B1
B15: AQP4 loop D2 compound mutant tagged with Venus or with mTurquoise2 (FRET pair) (natural protein)
chain: not shown
notes: aquaporin-4 (AQP4), human; M1 isoform (323 residues); Two differently tagged copies, written as one molecule; each chain carries one of the two tags; source: HEK293, transiently co-transfected, in live cells
B16: wild-type AQP4 tagged with Venus or with mTurquoise2 (FRET pair, co-transfected) (natural protein)
chain: not shown
notes: aquaporin-4 (AQP4), human; M1 isoform expressed from the wild-type construct in HEK293 (323 residues); Two differently tagged copies of one protein, written as one molecule; each chain carries one of the two tags, not both; With AQP1-Venus only the mTurquoise2 copy was present; The text speaks of the C-terminal tails, so C-terminal tags are surmised; also called AQP4-Venus; AQP4-mTurquoise2; …
B17: AQP4 loop D1 compound mutant tagged with Venus or with mTurquoise2 (FRET pair) (natural protein)
chain: not shown
notes: as for B15

Tests used:
[1] = molecular target: the molecule itself; assay: native gel or EMSA; BN-PAGE (8% bis-tris gel, pH 7.0, on ice) of whole-cell lysates of transfected HEK293 cells in 1% Triton X-100 BN lysis buffer, then immunoblot (anti-AQP4 or anti-GFP) and densitometry; self-association: tetramer, dimer, monomer bands
[2] = molecular target: the molecule itself; assay: FRET or BRET; sensitized-emission FRET between Venus- and mTurquoise2-tagged copies co-transfected into live HEK293 cells; apparent FRET efficiency normalised to acceptor emission

Protein | stoichiometry N [1] | further results
B1 | 4 | 
B2 | 4 | 
B3 | 4 | 
B4 | 4 | 
B5 | 4 | 
B6 | 4 | 
B7 |  | percent of the protein as dimers [1]: 5%
B8 | 4 | 
B9 | 4 | 
B10 | 4 | 
B11 | 4 | 
B12 | 4 | 
B13 | 4 | 
B14 | 4 | 
B15 |  | apparent FRET efficiency [2]: 20%
B16 |  | apparent FRET efficiency [2]: 44.2%
B17 |  | apparent FRET efficiency [2]: 17%
